{"source": "the supplement of paper PMC4604168 (melanoma cell lines)", "note": "Some of the results follow. Most values come without repeats; read them as rough.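 Also: cells treated in 1,536-well plates, then fixed and DAPI-stained, with nuclei counted from automated high-throughput microscope images.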", "data": [{"system": "WM3526", "experiment": "cell count relative to DMSO control; melanoma cells; higher = more viable cells", "conditions": "library dose: standard library concentration; 72 h", "units": {"cell count": "%"}, "values": [{"compound": "Cc1ccc(Nc2nccc(N(C)c3ccc4c(C)n(C)nc4c3)n2)cc1S(N)(=O)=O", "note": "[Pazopanib] + CC(C)CCN1c2nc(Nc3cc(F)c(O)c(F)c3)ncc2N(C)C(=O)C1C [BID1870] (first compound 2 µM, partner dose 1 µM)", "cell count": 61.2}, {"compound": "Cc1ccc(Nc2nccc(N(C)c3ccc4c(C)n(C)nc4c3)n2)cc1S(N)(=O)=O", "note": "[Pazopanib] + CCc1ccc(CCOc2ccc(CC3SC(=O)NC3=O)cc2)nc1 [pioglitazone] (first compound 2 µM, partner dose 10 µM)", "cell count": 87.9}, {"compound": "O=C(/C=C/c1cccnc1)NCCCCC1CCN(C(=O)c2ccccc2)CC1", "note": "+ O=C1NC(=O)/C(=C/c2ccc(-c3ccc(F)cc3O)o2)S1 [AS252424] (first compound 0.05 µM, partner dose 5 µM)", "cell count": 99.7}, {"compound": "O=C(/C=C/c1cccnc1)NCCCCC1CCN(C(=O)c2ccccc2)CC1", "note": "+ COc1ccc2c(c1)CCC1C2CCC2(C)C(NCCCCCCN3C(=O)C=CC3=O)CCC12 [U73122] (first compound 0.05 µM, partner dose 2 µM)", "cell count": 94.6}, {"compound": "O=C(/C=C/c1cccnc1)NCCCCC1CCN(C(=O)c2ccccc2)CC1", "note": "+ CCN(CC)CCCCNc1ncc2cc(-c3cc(OC)cc(OC)c3)c(NC(=O)NC(C)(C)C)nc2n1 [PD173074] (first compound 0.05 µM, partner dose 0.5 µM)", "cell count": 95.5}, {"compound": "CC1(C)CCC(c2ccc(Cl)cc2)=C(CN2CCN(c3ccc(C(=O)NS(=O)(=O)c4ccc(N[C@H](CCN5CCOCC5)CSc5ccccc5)c(S(=O)(=O)C(F)(F)F)c4)cc3)CC2)C1", "note": "+ O=C1NC(=O)/C(=C/c2ccc(-c3ccc(F)cc3O)o2)S1 [AS252424] (first compound 2 µM, partner dose 5 µM)", "cell count": 62}, {"compound": "Cc1ccc(Nc2nccc(N(C)c3ccc4c(C)n(C)nc4c3)n2)cc1S(N)(=O)=O", "note": "[Pazopanib] + Oc1cc(-c2nc(-c3ccccc3)[nH]c2-c2ccncc2)ccc1Cl [L779450] (first compound 2 µM, partner dose 1 µM)", "cell count": 57.2}, {"compound": "CC1(C)CCC(c2ccc(Cl)cc2)=C(CN2CCN(c3ccc(C(=O)NS(=O)(=O)c4ccc(N[C@H](CCN5CCOCC5)CSc5ccccc5)c(S(=O)(=O)C(F)(F)F)c4)cc3)CC2)C1", "note": "+ COc1ccc2c(c1)CCC1C2CCC2(C)C(NCCCCCCN3C(=O)C=CC3=O)CCC12 [U73122] (first compound 2 µM, partner dose 2 µM)", "cell count": 81.6}, {"compound": "Cc1ccc(Nc2nccc(N(C)c3ccc4c(C)n(C)nc4c3)n2)cc1S(N)(=O)=O", "note": "[Pazopanib] + O=C1NC(=O)/C(=C/c2ccc(-c3ccc(F)cc3O)o2)S1 [AS252424] (first compound 2 µM, partner dose 5 µM)", "cell count": 82.7}, {"compound": "O=C(/C=C/c1cccnc1)NCCCCC1CCN(C(=O)c2ccccc2)CC1", "note": "+ O=c1cc(-c2cccc3c2Sc2ccccc2S3)oc(N2CCOCC2)c1 [KU55933] (first compound 0.05 µM, partner dose 5 µM)", "cell count": 84.2}, {"compound": "Cc1ccc(Nc2nccc(N(C)c3ccc4c(C)n(C)nc4c3)n2)cc1S(N)(=O)=O", "note": "[Pazopanib] + N#Cc1c(O)c2c(-c3ccc(-c4ccccc4O)cc3)csc2[nH]c1=O [A769662] (first compound 2 µM, partner dose 10 µM)", "cell count": 88.4}, {"compound": "O=C(/C=C/c1cccnc1)NCCCCC1CCN(C(=O)c2ccccc2)CC1", "note": "+ Oc1cc(-c2nc(-c3ccccc3)[nH]c2-c2ccncc2)ccc1Cl [L779450] (first compound 0.05 µM, partner dose 1 µM)", "cell count": 56.4}, {"compound": "CC1(C)CCC(c2ccc(Cl)cc2)=C(CN2CCN(c3ccc(C(=O)NS(=O)(=O)c4ccc(N[C@H](CCN5CCOCC5)CSc5ccccc5)c(S(=O)(=O)C(F)(F)F)c4)cc3)CC2)C1", "note": "+ O=C(Nc1ccccc1)c1cc([N+](=O)[O-])ccc1Cl [GW9662] (first compound 2 µM, partner dose 10 µM)", "cell count": 70.2}, {"compound": "CC1(C)CCC(c2ccc(Cl)cc2)=C(CN2CCN(c3ccc(C(=O)NS(=O)(=O)c4ccc(N[C@H](CCN5CCOCC5)CSc5ccccc5)c(S(=O)(=O)C(F)(F)F)c4)cc3)CC2)C1", "note": "+ Nc1nc(F)nc2c1ncn2[C@@H]1O[C@H](CO)[C@@H](O)[C@@H]1O [fludarabine] (first compound 2 µM, partner dose 1 µM)", "cell count": 11.1}]}]}
